# From PubChem BioAssay AID1745853 (National Center for Advancing Translational Sciences (NCATS), 2022)
# The other results are listed elsewhere or left out. These are further read-outs of the screen, such as a control signal, another cell line or another target. No call is given for them.
# Tests used:
# Assay in all cases: Primary Screen for Target Class Profiling of Small Molecule Inhibitors of Methyltransferases
# [1] = molecular target: Glycine N-methyltransferase (Homo sapiens) (UniProt Q14749); settings: purified enzyme, MTase-Glo SAH luminescence; measured here: GNMT inhibition; at 40 µM; stronger effect = lower value
# Summary of the method: (§1)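 Each enzyme was reacted with SAM and its substrate, with compounds tested once at 40 uM; SAH formed was read by MTase-Glo luminescence.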
# [2] = molecular target: Guanidinoacetate N-methyltransferase (Homo sapiens) (UniProt Q14353); settings: purified enzyme, MTase-Glo SAH luminescence; measured here: GAMT inhibition; at 40 µM; stronger effect = lower value
# Summary of the method: as §1
# [3] = molecular target: Histamine N-methyltransferase (Homo sapiens) (UniProt P50135); settings: purified enzyme, MTase-Glo SAH luminescence; measured here: HNMT inhibition; at 40 µM; stronger effect = lower value
# Summary of the method: as §1
# [4] = molecular target: Nicotinamide N-methyltransferase (Homo sapiens) (UniProt P40261); settings: purified enzyme, MTase-Glo SAH luminescence; measured here: NNMT inhibition; at 40 µM; stronger effect = lower value
# Summary of the method: as §1
# [5] = molecular target: Phenylethanolamine N-methyltransferase (Homo sapiens) (UniProt P11086); settings: purified enzyme, MTase-Glo SAH luminescence; measured here: PNMT inhibition; at 40 µM; stronger effect = lower value
# Summary of the method: as §1
# % is set by controls: 0 for no effect and ±100 for the full control effect.
SMILES,"activity change, negative = inhibition [1]","activity change, negative = inhibition [2]","activity change, negative = inhibition [3]","activity change, negative = inhibition [4]","activity change, negative = inhibition [5]"
Cc1ccc(NC(=O)Cn2c(N3CCN(c4ccccc4)CC3)nc(C)cc2=O)cc1,-4.57%,-3.88%,-2.25%,-3.19%,-8.01%
Cn1c(N2CCCCS2(=O)=O)nc(C(=O)NCc2ccc(F)cc2)c(O)c1=O,-3.14%,-10.2%,-1.79%,-22.1%,-6.27%
COc1ccc(NC(=O)Cn2c(=O)oc3cc(S(=O)(=O)NC4CCCC4)ccc32)cc1OC,-4.65%,-0.929%,-2.7%,-8.48%,-27%
CCC(C)NC(=O)c1ccc2c(=O)n(CCC(C)C)c3nn(CC(=O)Nc4ccccc4C)c(=O)n3c2c1 (stereo not given),0.891%,2.06%,-0.577%,0.072%,-0.728%
O=c1c2ccccc2n2c(SCc3ccccc3F)nnc2n1Cc1ccc(F)cc1,-3.6%,0.554%,-2.15%,-12.2%,-2.07%
CCn1c(C(=O)OC)c(NC(C)=O)c2cc(NC(C)Cc3ccccc3OC)cnc21 (stereo not given),-6.61%,-2.49%,-8.67%,2.02%,-11.1%
Cn1nccc1C(=O)N1CC(C(=O)Nc2ccccn2)C2(CCOCC2)C1 (stereo not given),-2.35%,-6.41%,-1.57%,-5.96%,-4.62%
O=C(NCc1cccs1)c1c[nH]c2ncccc12,-3.8%,0.39%,1.44%,-7.19%,-7.54%
Cc1nn2c(c1-c1ccccc1OCc1ccccc1)N(Cc1nccn1C)CCC2,-4.39%,-4.93%,-3.92%,-25.8%,-4.89%
Cc1ccc(C)c(CNC(=O)c2cc3n(n2)CC(C)(C(=O)NCc2ccc(F)cc2)N(C)C3=O)c1 (stereo not given),-4.85%,1.7%,-1%,-4.75%,-5.72%
C/C(=C\CO)CC/C=C(\C)C(=O)O[C@@H]1O[C@H](CO)[C@@H](O)[C@H](O)[C@H]1O,2.75%,-0.656%,7.38%,-14.2%,6.77%
CCCn1c(=O)c2ccc(C(=O)NC(C)C)cc2n2c(SCC(=O)Nc3cc(C)cc(C)c3)nnc12,2.23%,0%,7.93%,-7.66%,5.47%
CCCn1c(=O)c2ccc(C(=O)NC(C)CC)cc2n2c(SCC(=O)Nc3ccc(C)cc3C)nnc12 (stereo not given),-1.15%,0.456%,0.588%,-1.82%,4.44%
COC(=O)[C@H]1[C@H]2C[C@H]3c4[nH]c5ccccc5c4CCN3C[C@H]2CC[C@@H]1O,-25.5%,0.043%,-8.12%,-10.4%,-48.3%
Cc1cccc(NC(=O)Cn2nc3n(CCC(C)C)c(=O)c4ccc(C(=O)NC(C)C)cc4n3c2=O)c1,8.23%,0%,4.01%,7.27%,5.54%
COc1ccc(CC2CCOC3(CCN(S(=O)(=O)c4c(C)nn(C)c4C)CC3)C2)cc1 (stereo not given),-6.64%,-4.82%,-1.38%,-10.4%,-2.18%
CC(=O)Nc1ccc(NS(=O)(=O)c2ccc3[nH]c(=O)[nH]c3c2)cc1,-4.88%,0.66%,9.93%,14%,-5.79%
COc1cc(-c2nc(N[C@H](CO)Cc3ccccc3)ccc2C(=O)NCCOc2ccccc2)cc(OC)c1OC,-0.484%,4.74%,11.4%,-19.1%,2.8%
C=C(CCC1C(C)(O)CCC2C(C)(C)C(O)CCC12C)C(O)CO (stereo not given),-6.35%,-16.1%,-0.32%,-23.1%,-10.4%
CCCn1c(=O)c2ccc(C(=O)NCC(C)C)cc2n2c(=O)n(CC(=O)Nc3cccc(F)c3)nc12,5.87%,0%,5.35%,3.85%,3.54%
Cc1cn(C[C@H](NC(=O)c2cccc(F)c2)C(=O)O)c(=O)[nH]c1=O,-8.97%,-12.1%,-5.27%,-24.1%,-26.9%
COC[C@H]1C[C@@H](NC(=O)Nc2ccc(F)cc2)[C@H](O)[C@@H]1O,-6.75%,-8.9%,-14.3%,-17.9%,-12.4%
Cc1ccc(Cn2nc3n(CC(C)C)c(=O)c4ccc(C(=O)NC(C)C)cc4n3c2=O)cc1,0.539%,6.29%,-0.248%,-0.699%,2.26%
CC(C)n1c(=O)c2ccc(C(=O)NC3CCCCC3)cc2n2c(=O)n(CC(=O)c3ccccc3)nc12,3.39%,6.3%,2.96%,-1.37%,3.52%
CC(C)Cn1c(=O)c2ccccc2n2c(=O)n(Cc3ccccc3F)nc12,-2%,0.671%,3.01%,-7.27%,-0.838%
Cc1ccc(C)c(N2C(=O)c3cc(-c4cccs4)nn3CC2(C)C(=O)NC2CCCCC2)c1 (stereo not given),2.14%,0%,4.91%,5.36%,2.6%
Cn1cc(Nc2ccc(Cl)cc2)c2nc(CN3CC[S+](=O)([O-])CC3)cn2c1=O,-18.9%,-14%,-5.02%,-16.3%,-21.7%
CC1(C(=O)N2CCc3ccccc32)CCCCC(=O)N1 (stereo not given),-3.57%,-4.64%,-1.59%,-11%,-4.01%
COC(=O)c1ncn2c1C(=O)N(Cc1ccccc1C)C(C)(C(=O)NCc1ccccc1)C2 (stereo not given),-8.88%,0.725%,-7.57%,-10.9%,-8.56%
